The source of these data is the RNAGym collection of RNA variant scans (doi:10.1101/gad.245936.114).

Sequences and labels used below:
B1: tRNA (parent)
chain: CUCUCGGUAGCCAAGUUGGUUUAAGGCGCAAGACUUUAAUUUAUCACUACGAAAUCUUGAGAUCGGGCGUUCGACUCGCCCCCGGGAGAUUUUUUCCUCGAGCAA

Variants at the background level are over-represented here.

In the data set the parent is B1. In words: nonsense suppression (GFP-seq) (ratio to wild type); higher = more function; SUP4oc tRNA, yeast GFP reporter sort-seq. Put shortly:
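Yeast carrying genome-integrated SUP4oc tRNA variants from a library with ~3% random mutations were grown in raffinose/galactose medium with 80 mg/L adenine. Each strain also carried a galactose-driven GFP ochre reporter and RFP. Cells were sorted into GFP/RFP bins, and each bin was Illumina-sequenced (phred ≥30). Nonsense suppression (GFPSEQ) is the bin median GFP/RFP, weighted by each variant's estimated cell share per bin, relative to wild-type SUP4oc; variants needed ≥100 reads and ≥30 cells.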
With G18C C29U G85A G88A, the nonsense suppression was not above 0.026. As to C3A G7U A24G C68G G78U, the nonsense suppression is not above 0.026.

In the case of A33C U58G, the nonsense suppression is not above 0.026. Regarding C5A U58C G86U, the nonsense suppression was not above 0.026.

On to U8C U20A A23C G73C, for which the nonsense suppression is not above 0.026. A14U A23U U71C G88C: the nonsense suppression was not above 0.026. In the case of U8C A14C C34U, the nonsense suppression was not above 0.026. For the variant U8G G67U C68G C77G C79U, the nonsense suppression is not above 0.026. On to C1G C64U U71A, for which the nonsense suppression is not above 0.026.

Consider C5A U16A G26C U71C C77A C81U, for which the nonsense suppression is not above 0.026. Take G26C A31G: the nonsense suppression is not above 0.026. Take C72U C80G: the nonsense suppression was not above 0.026. With G61A A62U A87U, the nonsense suppression was not above 0.026.

In the case of G61A A62U C72G, the nonsense suppression was not above 0.026. For C1U G85C A89C, the nonsense suppression is not above 0.026. As to C5G U35G, the nonsense suppression is not above 0.026. For the variant U8C U57G C82A, the nonsense suppression was not above 0.026. Next, G7C C80U: not above 0.026.

For C12U U63C U76A, the nonsense suppression is not above 0.026. In the case of A13C G88A, the nonsense suppression was determined as 0.0766. Take A9C C27A C82A: the nonsense suppression was not above 0.026. For the variant C68U U70A, the nonsense suppression is not above 0.026. On to C5U A23G, for which the nonsense suppression is 0.0405. For the variant U20C A30G U35C, the nonsense suppression was not above 0.026. Take A23G A31C U55A G88U: the nonsense suppression is not above 0.026.

Turning to A23U C34U U35G, the nonsense suppression was not above 0.026. As to C3U U20G G85A, the nonsense suppression amounted to 0.214. For G6C C34G, the nonsense suppression was not above 0.026.

With A24C C34G C56U, the nonsense suppression is not above 0.026.

For C3A U20A U22G C56A C80G, the nonsense suppression is not above 0.026. As to U17G A24C, the nonsense suppression came to 0.653.

For G7A U20C U70A, the nonsense suppression is not above 0.026.

As for A9G U35G U63C G84A, the nonsense suppression was not above 0.026. As for C12A C27A C77G, the figure is not above 0.026; as for U20G G67A, 0.0529. Next, A13G A30C U55C U76G: not above 0.026; G61C C79U: 0.202. Take U55G A60U: the nonsense suppression was not above 0.026. Take U71C G78C: the nonsense suppression is not above 0.026.

Take U16C A33G A62G: the nonsense suppression is not above 0.026. Turning to C1U A60C, the nonsense suppression was not above 0.026.

Take U17C G28A: the nonsense suppression was 1.09. With A31G U63G G66A C82A, the nonsense suppression is not above 0.026.

With G7U G26A G67A G73C, the nonsense suppression is not above 0.026. Regarding C29A G67A C77G, the nonsense suppression was not above 0.026. For C11U C27U A33G C75A C82G, the nonsense suppression was not above 0.026. A33C C56A U58G G85U: the nonsense suppression is not above 0.026.

As to A60C, the nonsense suppression stood at 0.489. With U21A A23G G32U G61A G84C, the nonsense suppression was not above 0.026. In the case of C12U U76A, the nonsense suppression amounted to 0.244.

With G7A G25U G61U, the nonsense suppression was not above 0.026. As to A24U U35G A89G, the nonsense suppression was not above 0.026.

Take G7C A30U A33G C79G C80U: the nonsense suppression was not above 0.026. A9C G10U C12U U35C: the nonsense suppression is not above 0.026. Take G18A A30G: the nonsense suppression was determined as 0.0263. For the variant U21C A60U C68U, the nonsense suppression is 1.05. Take C11A U63G: the nonsense suppression was not above 0.026. Next, C11A G28A U76C: not above 0.026. As to U4A C34G, the nonsense suppression is not above 0.026. In the case of U2G C11A G84C, the nonsense suppression was not above 0.026. Consider C1U U21A, for which the nonsense suppression was not above 0.026. Take C1U U21G: the nonsense suppression was not above 0.026. For the variant C29A A54U C56U G66C, the nonsense suppression was not above 0.026. As to C5U G18U G25C A89G, the nonsense suppression was not above 0.026. Consider U35C G86A A89C, for which the nonsense suppression is not above 0.026.

As to A14G, the nonsense suppression is not above 0.026. As to G28C A74C C81G, the nonsense suppression was not above 0.026. On to A31U U63G G66U, for which the nonsense suppression was not above 0.026.

Regarding G15C G59U, the nonsense suppression was not above 0.026. Next, U22G C81G C82G: not above 0.026; U20C G67A U70A C77G: not above 0.026. On to A54G C81A, for which the nonsense suppression is not above 0.026. Turning to C1A G15C U21G C34U C81A, the nonsense suppression was not above 0.026. As to U16G A54U, the nonsense suppression turned out to be 1.18. For U22C U55C U57G, the nonsense suppression was not above 0.026. As for C1U A33G U35A G61A G66C, the figure is not above 0.026; as for C1A A87U, not above 0.026; as for G6C U16C U71G G84U, not above 0.026. For the variant U8G G88A, the nonsense suppression is 0.228. Next, G7U U17G U70G C80A: not above 0.026. Next, C29G A54U: not above 0.026; G19U G28C: not above 0.026.

A54C U76G A89G: the nonsense suppression was not above 0.026. U55G C77G G88C: the nonsense suppression was not above 0.026. In the case of C12A U63C G69U, the nonsense suppression is not above 0.026.

Regarding A14U C64G G67A, the nonsense suppression was not above 0.026.

Regarding G25U A60C, the nonsense suppression is not above 0.026. For U21C A54C U63G C82G, the nonsense suppression is not above 0.026. Turning to U4C G65U, the nonsense suppression is not above 0.026. For C3A U20G A33G, the nonsense suppression is not above 0.026. A9C C11U G69A: the nonsense suppression was not above 0.026. As for G15C C27U C34U A54C, the figure is not above 0.026; as for C1G C3U, not above 0.026. Regarding U63A G85C, the nonsense suppression was not above 0.026. For U2G C83G, the nonsense suppression was not above 0.026. As for C56A U58G G84C, the figure is not above 0.026. Turning to C1U G32A, the nonsense suppression is not above 0.026. As to A9C C12U, the nonsense suppression was 0.186. For the variant A23C G66C, the nonsense suppression is not above 0.026.

As to C1U G19A A54C U70C, the nonsense suppression was not above 0.026. Regarding G18C C27U C81A, the nonsense suppression was not above 0.026. For U4C G73U, the nonsense suppression was not above 0.026. Take A23C U55G: the nonsense suppression was not above 0.026. Turning to C12G A33G, the nonsense suppression was not above 0.026. U35C C77A: the nonsense suppression is not above 0.026. As for U71C C79A, the figure is not above 0.026. For C11U C29U U76A, the nonsense suppression was not above 0.026.

As to C5G A24U U57C G66U, the nonsense suppression was not above 0.026.

Regarding G26U G28U, the nonsense suppression was not above 0.026. As for A33G G69A, the figure is not above 0.026; as for G7A G32C C79A, not above 0.026. Next, U17C G59C G84C: not above 0.026. As for C29U C68U C79A A89G, the figure is not above 0.026; as for A54G U57A G73A, not above 0.026; as for G65A C77G, not above 0.026. For A14G U17A G25A C29U U63G, the nonsense suppression was not above 0.026. C5G G6U G28A A89G: the nonsense suppression was not above 0.026. G61A G69A: the nonsense suppression is 0.0276.

Take G73A G86C G88C: the nonsense suppression is not above 0.026. Regarding G19U G85A, the nonsense suppression was not above 0.026.

For G15U U35G G73C, the nonsense suppression is not above 0.026. Regarding C3A U63C G73U C79G, the nonsense suppression is not above 0.026. Regarding A24C A30U C81A, the nonsense suppression is not above 0.026. For G25U A74G, the nonsense suppression is not above 0.026.

Take U63A U76A: the nonsense suppression is not above 0.026. Take U63A G67U C83G: the nonsense suppression is not above 0.026. On to U8G C12U A14C G32C U57C G59C, for which the nonsense suppression was not above 0.026.

C1A U17A C27U A87U: the nonsense suppression is not above 0.026. Consider C3A C56A G65A, for which the nonsense suppression is not above 0.026. U70C C83A: the nonsense suppression is not above 0.026.

Take A14U U20A A30C U35A G69U G88U: the nonsense suppression is not above 0.026. As for U16G G28U G67U, the figure is not above 0.026. As to G65A G69A, the nonsense suppression is not above 0.026.

Consider U2A C29A C56A A60U, for which the nonsense suppression was not above 0.026.

Take C5A U20A: the nonsense suppression was not above 0.026.

G19C U57A: the nonsense suppression is not above 0.026. On to A33G U63A, for which the nonsense suppression is 0.031. Turning to A33G U58G G66C, the nonsense suppression is not above 0.026.

Take A23C G28U: the nonsense suppression was not above 0.026. For U4G A30U U35A, the nonsense suppression was not above 0.026. In the case of U35G C56G G59A, the nonsense suppression was not above 0.026. For the variant A13U U58A U63G, the nonsense suppression was not above 0.026. Take U57C U71A: the nonsense suppression was not above 0.026.

On to C11U A87C, for which the nonsense suppression is not above 0.026. As to U8C C29G G73U U76G, the nonsense suppression is not above 0.026.

Take C3G A33C: the nonsense suppression was not above 0.026. As for C11A U55A, the nonsense suppression was not above 0.026.

G32A A54U: the nonsense suppression was not above 0.026. Next, C5U U8C U20G: not above 0.026. As for G18C C82A, the nonsense suppression is not above 0.026. For the variant A33G C34G U55A U76A G84C, the nonsense suppression was not above 0.026.

With A9G U76A, the nonsense suppression came to 0.103.

With A9U A74U, the nonsense suppression stood at 0.106.

Regarding U8C G65A C72U, the nonsense suppression is not above 0.026. On to C12G G15A A87U, for which the nonsense suppression is not above 0.026. On to U2A G15A G66C G85U, for which the nonsense suppression was not above 0.026. Regarding G18C U55A U58G U70A, the nonsense suppression is not above 0.026.

In the case of A9G U22A C68A, the nonsense suppression is not above 0.026.

As to U2C U8C G15U, the nonsense suppression is not above 0.026. On to C11U G18A U55A, for which the nonsense suppression was not above 0.026. On to U57A G66A G78C C82A, for which the nonsense suppression is not above 0.026. With G6C G26C U58A G73C U76C, the nonsense suppression was not above 0.026.

G15U U17A U20A A31G G84C G86A: the nonsense suppression is not above 0.026.

Turning to C72G G78U, the nonsense suppression is not above 0.026.

With A24U A62G, the nonsense suppression came out at 0.0414. As for C5A C11U, the figure is not above 0.026; as for G66A U71G, not above 0.026.
